# Experimental data taken from the BET-seq Pho4 binding data (Le et al. 2018).
# This is one part of the list. These are noisy estimates, calculated here from bound and input reads.
# Target: T1, Pho4 (S. cerevisiae) (UniProt P07270)
# T1 sequence: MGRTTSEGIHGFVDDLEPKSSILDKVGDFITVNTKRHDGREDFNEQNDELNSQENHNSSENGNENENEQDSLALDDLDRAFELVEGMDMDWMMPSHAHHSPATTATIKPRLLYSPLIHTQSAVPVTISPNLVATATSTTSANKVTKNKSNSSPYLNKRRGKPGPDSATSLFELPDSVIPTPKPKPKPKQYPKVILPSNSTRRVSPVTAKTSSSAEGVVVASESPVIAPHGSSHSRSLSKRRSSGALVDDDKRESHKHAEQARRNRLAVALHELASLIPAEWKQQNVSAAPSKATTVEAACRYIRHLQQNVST
# Test: relative binding free energy (BET-seq); higher = weaker binding
# Settings: reference: library average
row,Sequence,relative binding free energy [kcal/mol]
1,ACGAGCACGTGGAGGG,-0.08
2,CGAGGCACGTGGTGAG,-0.07
3,GTTAGCACGTGGTGGA,-0.09
4,AAGGTCACGTGGTAAG,0.1
5,GGGAGCACGTGGTGGT,-0.06
6,TAAAGCACGTGGTTTA,-0.19
7,TTGGACACGTGGATTA,0.16
8,TAATACACGTGGGTTG,-0.12
9,GATTTCACGTGCTGTG,0.37
10,TTTATCACGTGGGCTG,0.01
11,TGTTTCACGTGGTCTC,0.12
12,GGTTCCACGTGTGGCT,0.2
13,GATTTCACGTGGAGAT,0.35
14,GTAGACACGTGCTGTT,-0.02
15,ATGTACACGTGTAGAT,0.16
16,CAGTTCACGTGGTAGT,0.16
17,AATTTCACGTGGGGAC,0.27
18,ATATGCACGTGTAGAA,-0.01
19,TCATTCACGTGGTAGG,0.08
20,CTTAGCACGTGGGCGT,-0.24
21,CGCTGCACGTGTGTGT,0.03
22,CTAGACACGTGGGCGG,-0.21
23,TTTCTCACGTGGGTTC,0.24
24,GTTTGCACGTGTTATG,0.08
25,GAGTTCACGTGTAGGC,0.31

row,Sequence,relative binding free energy [kcal/mol]
1,AAGATCACGTGTGGCG,0.12
2,TTTACCACGTGGGGTC,-0.21
3,AGTTACACGTGTAGGC,0.15
4,CGTCTCACGTGGTGGT,0.11
5,AGGGTCACGTGTGTAC,0.14
6,TGTAACACGTGGGGTT,-0.13
7,TCGGTCACGTGAAGGG,0.52
8,GGGCCCACGTGTTTGT,-0.02
9,CAAGCCACGTGGAGGG,0.02
10,GTGCTCACGTGCGTTA,0.31
11,GGGTCCACGTGGGTCA,-0.09
12,TGATTCACGTGTTAAA,0.41
13,TGCTACACGTGGGTAT,0.01
14,CGATACACGTGGTGTG,-0.06
15,GGCGGCACGTGTGGCT,-0.03
16,GTCGACACGTGGTATG,0.03
17,GATATCACGTGGCTTT,0.15
18,GGAGGCACGTGGGCCG,-0.2
19,GCACGCACGTGGGGTA,-0.17
20,TCAGGCACGTGACGGT,0.07
21,GGCAACACGTGAGTTT,0.5
22,TGAAACACGTGTGCTG,0.04
23,GAATGCACGTGTGTAA,0.06
24,TAGTTCACGTGGTAGA,0.21
25,AGTTTCACGTGATTCG,0.5

row,Sequence,relative binding free energy [kcal/mol]
1,AATGGCACGTGGAGAT,-0.08
2,AATTGCACGTGTACTG,0.01
3,AAGGGCACGTGATGTC,0.03
4,CTTTGCACGTGATATG,-0.03
5,TGATACACGTGGGCTT,-0.2
6,CGGAACACGTGTTGTT,0.07
7,GGTAGCACGTGGGTGA,-0.18
8,ATGATCACGTGATTGG,0.05
9,AATATCACGTGGTGGG,0.14
10,AATAACACGTGTGGCG,0.32
11,TTTAGCACGTGTCGAT,-0.01
12,ATATACACGTGGGCGG,-0.26
13,TGAGTCACGTGTGACT,0.1
14,TGCGTCACGTGACAGG,0.12
15,TAGTGCACGTGGGGGC,-0.24
16,TACGGCACGTGGTGCT,-0.29
17,TGCTCCACGTGGGTTG,-0.25
18,ATTCTCACGTGCGTGG,0.19
19,GGGGGCACGTGGTGGG,-0.13
20,TAGGGCACGTGAGAGT,0.13
21,TTAGGCACGTGAAGTC,0.26
22,TCTGGCACGTGCAGTG,-0.17
23,CGTGTCACGTGGGTCA,-0.14
24,GTTCGCACGTGGAGTA,-0.04
25,GATGTCACGTGTAGTG,0.15

row,Sequence,relative binding free energy [kcal/mol]
1,TGCGGCACGTGTGTAT,-0.05
2,TCTGACACGTGTGTTA,0.12
3,ATATTCACGTGGATTT,0.26
4,TGGTCCACGTGCGGGC,0.05
5,GGTGGCACGTGTCTCT,-0.07
6,TGTATCACGTGTAGCT,0.09
7,AGGGTCACGTGCGTGG,0
8,TTTATCACGTGTGTTC,0.17
9,TCCGTCACGTGTGTTT,0.21
10,TAAGGCACGTGGGGGA,-0.23
11,AGGGTCACGTGACTAG,-0.01
12,CAATTCACGTGGGTTA,0.18
13,GGATTCACGTGTCTAT,0.37
14,GTTGGCACGTGGAAGT,0.06
15,GTGATCACGTGATATT,0.23
16,ATAGCCACGTGAGGGG,0.05
17,ATTATCACGTGTGAGT,0.23
18,TGACGCACGTGGGTGG,-0.22
19,TGGTCCACGTGTGGCT,0.15
20,TGGCGCACGTGTGGGA,-0.04
21,TGGCACACGTGGTGCG,0.06
22,GATGTCACGTGAGTAA,0.27
23,GGAATCACGTGTGAAG,0.3
24,ACGATCACGTGATGGG,0.16
25,AGTGTCACGTGTTTGA,-0.07

row,Sequence,relative binding free energy [kcal/mol]
1,ATGTGCACGTGGACGA,-0.08
2,TGGTACACGTGAGAGT,0.28
3,ATGTGCACGTGAGTGC,0.06
4,TTGTACACGTGCTGGA,0.15
5,ATGATCACGTGTGGAT,0.13
6,GTTACCACGTGCAGGG,0.1
7,AACGTCACGTGGGGAG,-0.01
8,TCATGCACGTGTTGGG,-0.01
9,TTGATCACGTGGCTGT,0.18
10,GTTGTCACGTGAGCAT,0.24
11,GGATTCACGTGGGGTG,0.12
12,AAAGGCACGTGAGTCG,0.31
13,TTCGTCACGTGATTAT,0.11
14,AATGACACGTGTCAGG,0.19
15,AGGTACACGTGAATGG,0.11
16,GGGTACACGTGCATTG,0.07
17,ATTTTCACGTGGATTC,0.28
18,GGAGCCACGTGGATGG,-0.15
19,ATTTGCACGTGCTCGT,-0.09
20,AGAAACACGTGGTTAT,-0.01
21,GCACACACGTGGGGTG,-0.06
22,CTTGTCACGTGGTGTC,0.02
23,GGTCGCACGTGTCGTG,0.1
24,AAATTCACGTGGATAG,0.33
25,GATAACACGTGTATAT,0.2

row,Sequence,relative binding free energy [kcal/mol]
1,TAGGTCACGTGATTTT,0.31
2,TCAGTCACGTGAGAGT,0.3
3,ACTAGCACGTGGGGTA,-0.28
4,GGAGTCACGTGGGCGA,0.08
5,GATTCCACGTGAATGG,0.57
6,TCTTGCACGTGGTCTG,-0.19
7,TATCACACGTGTGAGT,0.1
8,TAGTGCACGTGCTGGC,-0.08
9,CATGTCACGTGGGATT,-0.05
10,GTTATCACGTGCTGGA,0.16
11,TTAGTCACGTGGTCAG,-0.01
12,CGCTGCACGTGATGTG,0.05
13,CGTGACACGTGGATTG,-0.09
14,TAAAGCACGTGTGTAT,0.08
15,AGTAACACGTGATGGG,0.11
16,TCCTCCACGTGTGGGT,0.23
17,ATCTTCACGTGTGGAG,0.16
18,TTAATCACGTGGTTCG,0.04
19,ATTGGCACGTGGTCAA,-0.17
20,GGAGACACGTGTGTGG,-0.05
21,GTGAACACGTGTGTTC,0.26
